# In all, about 410,000 compounds went through this assay and about 6,400 (1.6%) were called active. The shares of active, inactive and inconclusive entries below differ from those in the screen. The call rests on the fitted dose curve; in most records, active means well fitted inhibition curve with a large enough effect; inconclusive means small, poorly fitted or top-dose-only effect; inactive means no such curve, though single readings can be large or run the other way. No potency is given beside an inconclusive call; the fits are too rough.
# Molecular target: Glucagon-like peptide 1 receptor (Homo sapiens) (UniProt P43220)
# UniProt P43220, sequence (P43220 whole entry, looked up): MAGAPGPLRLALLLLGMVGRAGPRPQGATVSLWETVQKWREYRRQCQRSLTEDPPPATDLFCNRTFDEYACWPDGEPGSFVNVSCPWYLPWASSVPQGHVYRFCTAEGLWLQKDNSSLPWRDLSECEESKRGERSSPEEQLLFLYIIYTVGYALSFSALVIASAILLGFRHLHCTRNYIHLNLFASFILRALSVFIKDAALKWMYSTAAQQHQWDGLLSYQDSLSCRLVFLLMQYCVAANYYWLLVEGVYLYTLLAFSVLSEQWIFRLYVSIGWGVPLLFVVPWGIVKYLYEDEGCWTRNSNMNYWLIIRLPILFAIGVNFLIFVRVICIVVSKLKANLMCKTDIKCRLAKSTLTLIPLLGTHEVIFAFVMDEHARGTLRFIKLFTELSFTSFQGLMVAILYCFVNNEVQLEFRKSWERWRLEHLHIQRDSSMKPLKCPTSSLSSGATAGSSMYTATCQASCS
# Experiment: qHTS of GLP-1 Receptor Inverse Agonists (Inhibition Mode); further: nearly all actives have a fitted effect of over 55% in size
# Conditions: HEK293 GLP-1R CRE-luciferase, luminescence, 24 h, GLP-1R form is constitutively active; series mostly up to 38.3 µM
# Summary of the method: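 qHTS in 1536-well format: reporter HEK293 cells expressing constitutive GLP-1R activity in DMEM + 10% Nu serum, 24 hr with compounds at 37 deg C, luminescence read after 12 min with detection reagent.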
# Potency means the concentration at half of the fitted maximal effect; tags describe the fitted curve by direction and shape.
row,SMILES,Potency
1,O=c1[nH]c(CSc2nnc(Cc3ccccc3)o2)nc2ccccc12,inactive
2,CCCCCCCn1c(NC(=O)CC)nc2ccccc21,"inconclusive [inhibitor, single point]"
3,COc1ccc(C#Cc2ccc(C3=CC(=O)CC(C)(C)C3=O)cc2)cc1,"inconclusive [inhibitor, full curve, poor fit]"
4,C/C=C/c1ccc(OCCCNCC(C)O)c(OC)c1 (stereo not given),active: 5.62 µM
5,COc1cccc(Nc2nc(-c3ccc4c(c3)OCCO4)cs2)c1,"inconclusive [inhibitor, single point]"
6,Cc1ccc(Cn2cc(S(=O)(=O)c3ccc(C)cc3)c(=O)c3cc(F)c(N4CCCC4)cc32)cc1,inactive
7,O=[N+]([O-])c1cccc(/C=N/n2cnnc2)c1,inactive
8,CCOC(=O)c1sc2ccccc2c1OC(=O)c1ccc(C)cc1,inactive
9,C/C(=N\Nc1ccc([N+](=O)[O-])cc1)c1cc2ccccc2o1,"inconclusive [inhibitor, single point]"
10,Cc1c(Cl)cccc1-n1ncc(C(=O)Nc2ccc(F)cc2F)c1C1CCN(C(=O)OC(C)(C)C)CC1,"inconclusive [inhibitor, partial curve, poor fit]"
11,O=C1[C@H]2[C@@H](c3ccc(F)cc3)N3C(=O)N(c4ccccc4)C(=O)[C@@]3(Cc3ccccc3)[C@H]2C(=O)N1C1CCCCC1,"inconclusive [inhibitor, single point]"
12,Cc1cc(Cl)ccc1NS(=O)(=O)c1ccc2c(c1)CC(C)N2C(=O)C1CCC1 (stereo not given),"inconclusive [inhibitor, partial curve, poor fit]"
13,S=C(NCc1cccnc1)Nc1ccc(Oc2ccccc2)cc1,"inconclusive [inhibitor, single point]"
14,COC(=O)C1CCN(C(c2ccccc2)c2sc3nc(-c4ccco4)nn3c2O)CC1 (stereo not given),inactive
15,Clc1ccc(-c2n[nH]c3c2CCC3)cc1Cl,"inconclusive [inhibitor, single point]"
16,CC(C)c1ccc(NC(=O)N2CCc3nc(NCc4cccc(Oc5ccccc5)c4)ncc3C2)cc1,"inconclusive [inhibitor, partial curve]"
17,CCOC(=O)[C@]12CCCC=C1N(CCC1=CCCCC1)C(=O)[C@H](CC(=O)NCc1cccs1)C2,"inconclusive [inhibitor, single point]"
18,Cc1cc(N2CCOCC2)nc2ccc(NC(=O)CCC(=O)N3CCN(c4cccc(C(F)(F)F)c4)CC3)cc12,active: 10 µM
19,CC12CCC(C(=O)Nc3cccc(Cl)c3Cl)([C@H](Br)C1=O)C2(C)C (stereo not given in full),"inconclusive [inhibitor, partial curve, poor fit]"
20,O=C(C1CCCO1)N1CCN(C(=S)Nc2ccc(Cl)cc2Cl)CC1 (stereo not given),"inconclusive [inhibitor, partial curve]"
21,CCC/C(O)=C1\C(=O)CCCC1=NCCc1c(C)[nH]c2ccc(C)cc12,"inconclusive [inhibitor, partial curve, poor fit]"
22,Cc1c(C(=O)NCCSc2ccc(Cl)cc2)cccc1[N+](=O)[O-],"inconclusive [inhibitor, partial curve, poor fit]"

row,SMILES,Potency
1,CNS(=O)(=O)c1ccc(C(=O)NCC(=O)NCCC(c2ccccc2)c2ccccc2)cc1,"inconclusive [inhibitor, single point]"
2,Cc1ccc(S(=O)(=O)c2ccc(Oc3ccccc3)cc2)cc1,"inconclusive [inhibitor, single point]"
3,O=C(NCc1cccc(Cl)c1)C1Cc2c(-c3ccccc3)ccnc2O1 (stereo not given),inactive
4,Clc1ccc(C=NNc2ccccn2)c(Cl)c1,"inconclusive [inhibitor, single point]"
5,CCOC(=O)c1cc(-c2ccc(OC)cc2)n(CCC(=O)NC2CCN(Cc3ccccc3)CC2)c1C,"inconclusive [inhibitor, partial curve, poor fit]"
6,Cc1ccc(-c2c3c(=O)n(C)c(=O)n(C)c3cn2-c2cc(C)ccc2O)cc1,"inconclusive [inhibitor, single point]"
7,O=C(N/N=C/c1c[nH]c2ccccc12)c1cc(-c2ccc(-c3ccccc3)cc2)n[nH]1,"inconclusive [inhibitor, partial curve, poor fit]"
8,Cc1nn(Cc2cccc(C(=O)N3CCCC(C)C3)c2)c(C)c1[N+](=O)[O-] (stereo not given),"inconclusive [inhibitor, partial curve, poor fit]"
9,CCCCn1c(N)c(N(CC(C)C)C(=O)CCNC(=O)c2ccc(Br)cc2)c(=O)[nH]c1=O,"inconclusive [inhibitor, single point]"
10,NC(=O)NC(Cc1ccccc1)C(=O)NCCCSc1ccccc1 (stereo not given),"inconclusive [inhibitor, full curve, poor fit]"
11,CC(C)(C)OC(=O)N(Cc1ccccc1)Cc1cccc(OCc2cccc(NC(=O)c3ccccc3)c2)c1,"inconclusive [inhibitor, single point]"
12,Cc1c(Cl)cccc1NC(=O)CSC(C)c1nc2ccccc2c(=O)[nH]1 (stereo not given),"inconclusive [inhibitor, single point]"
13,Cc1cc2c(NC(=O)CC(C)(C)CC(=O)O)cccc2nn1,inactive
14,S=c1[nH]cc(-c2ccccc2)n1-c1cccc(Cl)c1,"inconclusive [inhibitor, single point]"
15,CCOc1cc(C2C(C(=O)OC)=C(C)NC3=C2C(=O)c2ccccc23)c(Br)cc1O (stereo not given),"inconclusive [inhibitor, single point]"
16,CC(C)NC(=O)Cn1nc(N2CCN(c3ccccc3)CC2)ccc1=O,inactive
17,COC(=O)c1[nH]c2ccccc2c1NC(=O)CN1CCCc2ccccc21,"inconclusive [inhibitor, single point]"
18,Cc1ccc(-c2cc(C(=O)N/N=C/C=C/c3ccccc3)n[nH]2)o1,"inconclusive [inhibitor, single point]"
19,CCCOc1ccc(Cc2c(Cl)nc(SC)nc2N(C)C)cc1,"inconclusive [inhibitor, partial curve, poor fit]"
20,CC1CCCC(C)N1C(=O)COC(=O)C1CCN(S(=O)(=O)c2c(Cl)cccc2Cl)CC1 (stereo not given),"inconclusive [inhibitor, partial curve, poor fit]"
21,COc1ccc(-c2nc(NC(=O)C3CCN(c4nc5ccccc5o4)CC3)sc2C)cc1,"inconclusive [inhibitor, full curve, poor fit]"
22,CCN(CC)CCOc1ccc2nc(N(C)C)sc2c1,"inconclusive [inhibitor, full curve, poor fit]"

row,SMILES,Potency
1,Cc1ccc(NC(=O)CN2C(=O)NC(C)(CC(C)C)C2=O)cc1F (stereo not given),"inconclusive [inhibitor, single point]"
2,Cc1ccccc1CNC(=O)C(=O)NCC(c1cccs1)S(=O)(=O)c1ccc(Cl)cc1 (stereo not given),"inconclusive [inhibitor, single point]"
3,N#CC1=C(N)Oc2cc(O)c(Cl)cc2C1c1cccnc1 (stereo not given),inactive
4,CC(C)NCC#CCOc1ccc(Cl)cc1,"inconclusive [inhibitor, single point]"
5,CCc1ccc(NC(=O)Cn2c(=O)n(CC3CCCO3)c(=O)c3cc(OC)c(OC)cc32)cc1 (stereo not given),inactive
6,Cc1ccc(OCC(=O)Nc2ccc(Cl)cc2)c([N+](=O)[O-])n1,inactive
7,O=C(Cn1c(=O)c2cccn2c2ccc(F)cc21)N1CCN(c2ccccc2)CC1,inactive
8,Cc1ccc(SCc2[nH]nc3c2C2(C(=O)N(C)c4ccccc42)C(C#N)=C(N)O3)cc1 (stereo not given),"inconclusive [inhibitor, single point]"
9,O=C(Nc1ccc(Br)cc1)c1ccco1,inactive
10,CC(NC(=O)CN1CCN(c2ccccc2F)CC1)c1ccccc1 (stereo not given),"inconclusive [inhibitor, single point]"
11,CC1CCCC(NCC(O)COC(c2ccc(F)cc2)c2ccc(F)cc2)C1C (stereo not given),"inconclusive [inhibitor, partial curve, poor fit]"
12,Cc1cc(F)ccc1C(O)c1ncc(-c2ccccc2C(F)(F)F)[nH]1 (stereo not given),inactive
13,Cc1ccc(-c2cc(C(F)(F)F)c(C#N)c(SCC(=O)O)n2)cc1,"inconclusive [inhibitor, partial curve, poor fit]"
14,COc1ccc(NS(=O)(=O)c2ccc(N3CCCCC3)c(N)c2)cc1,"inconclusive [inhibitor, partial curve, poor fit]"
15,O=C(NCc1ccco1)c1ccc2c(c1)N(Cc1ccc(Cl)cc1)CCS2,"inconclusive [inhibitor, partial curve, poor fit]"
16,C/C(=C\c1cccc(Br)c1)C(=O)c1c(C)cc(C)[nH]c1=O,"inconclusive [inhibitor, partial curve]"
17,OCCN(CCO)CC(O)CN(c1ccccc1)c1ccccc1 (stereo not given),"inconclusive [inhibitor, single point]"
18,CCOC(=O)Nc1ccc2c(c1)N(C(=O)CCN(CC)CC)c1ccccc1S2=O (stereo not given),"inconclusive [inhibitor, single point]"
19,Cc1ccc(NC(=O)CSCC(=O)NC2(C)CCS(=O)(=O)C2)cc1 (stereo not given),inactive
20,Cc1cccc(C#Cc2ccccc2)n1,inactive
21,CCOc1cc(C(=O)N2CCC(CC3CC(c4ccccc4)=NO3)(C(=O)NCc3ccc(OC)cc3)CC2)cc(OCC)c1OCC (stereo not given),"inconclusive [inhibitor, partial curve, poor fit]"
